# The supplement of paper PMC8728848
# The other results are listed elsewhere or left out.
# Columns and labels:
# Test in all cases: glycan array binding signal (z-score within array); higher = stronger binding
# Conditions in all cases: glycan notation: IUPAC condensed, linker removed
# Gal3S6S(b1-4)GlcNAc = target: Gal3S6S(b1-4)GlcNAc
# Outline: (§1)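 Arrays were curated from the Consortium for Functional Glycomics database, 3228 in total, and kept only where the protein sequence was available. Binding is expressed as a within-array Z-score. This score was averaged across arrays of the same protein sequence at different concentrations or buffers and across linkers, and negative values can be read as non-binding.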
# Gal3S6S(b1-4)GlcNAc6S = target: Gal3S6S(b1-4)GlcNAc6S
# Outline: as §1
# Gal4S(b1-4)GlcNAc = target: Gal4S(b1-4)GlcNAc
# Outline: as §1
# Gal4S6S(b1-4)GlcNAc = target: Gal4S6S(b1-4)GlcNAc
# Outline: as §1
# Gal6P(b1-4)GlcNAc = target: Gal6P(b1-4)GlcNAc
# Outline: as §1
# Gal6S(b1-3)GlcNAc = target: Gal6S(b1-3)GlcNAc
# Outline: as §1
# Gal6S(b1-3)GlcNAc6S = target: Gal6S(b1-3)GlcNAc6S
# Outline: as §1
# Gal6S(b1-4)Glc = target: Gal6S(b1-4)Glc
# Outline: as §1
# Gal6S(b1-4)Glc6S = target: Gal6S(b1-4)Glc6S
# Outline: as §1
# Gal6S(b1-4)GlcNAc = target: Gal6S(b1-4)GlcNAc
# Outline: as §1
# Gal6S(b1-4)GlcNAc6S = target: Gal6S(b1-4)GlcNAc6S
# Outline: as §1
# GalNAc(a1-3)Gal = target: GalNAc(a1-3)Gal
# Outline: as §1
# GalNAc(a1-3)GalNAc = target: GalNAc(a1-3)GalNAc
# Outline: as §1
# [1] = target: GalNAc(a1-3)GalNAc(b1-3)Gal(a1-4)Gal(b1-4)Glc
# Outline: as §1
# [2] = target: GalNAc(a1-3)GalNAc(b1-3)Gal(a1-4)Gal(b1-4)GlcNAc
# Outline: as §1
# GalNAc(b1-3)Gal = target: GalNAc(b1-3)Gal
# Outline: as §1
# [3] = target: GalNAc(b1-3)Gal(a1-4)Gal(b1-4)GlcNAc
# Outline: as §1
# [4] = target: GalNAc(b1-3)Gal(a1-4)Gal(b1-4)GlcNAc(b1-3)Gal(b1-4)Glc
# Outline: as §1
# [5] = target: GalNAc(b1-3)Gal(a1-6)Gal(b1-4)Glc
# Outline: as §1
# GalNAc(b1-3)GalNAc = target: GalNAc(b1-3)GalNAc
# Outline: as §1
# GalNAc(b1-3)GlcNAc = target: GalNAc(b1-3)GlcNAc
# Outline: as §1
# GalNAc(b1-4)Gal(b1-4)Glc = target: GalNAc(b1-4)Gal(b1-4)Glc
# Outline: as §1
# GalNAc(b1-4)GlcNAc = target: GalNAc(b1-4)GlcNAc
# Outline: as §1
# [6] = target: GalNAc(b1-4)GlcNAc(b1-2)Man
# Outline: as §1
# [7] = target: GalNAc(b1-4)GlcNAc(b1-2)Man(a1-3)[GalNAc(b1-4)GlcNAc(b1-2)Man(a1-6)]Man(b1-4)GlcNAc(b1-4)GlcNAc
# Outline: as §1
# [8] = target: GalNAc(b1-4)GlcNAc(b1-3)GalNAc(b1-4)GlcNAc
# Outline: as §1
# GalNAc(b1-4)GlcNAc6S = target: GalNAc(b1-4)GlcNAc6S
# Outline: as §1
# GalNAc(b1-6)GalNAc = target: GalNAc(b1-6)GalNAc
# Outline: as §1
# GalNAc3S(b1-4)GlcNAc = target: GalNAc3S(b1-4)GlcNAc
# Outline: as §1
# GalNAc3S(b1-4)GlcNAc3S = target: GalNAc3S(b1-4)GlcNAc3S
# Outline: as §1
# [9] = target: GalNAc3S(b1-4)[Fuc(a1-3)]GlcNAc
# Outline: as §1
# GalNAc4S6S(b1-4)GlcNAc = target: GalNAc4S6S(b1-4)GlcNAc
# Outline: as §1
# GalNAc6S(b1-4)GlcNAc = target: GalNAc6S(b1-4)GlcNAc
# Outline: as §1
# Glc(a1-4)Glc = target: Glc(a1-4)Glc
# Outline: as §1
# [10] = target: Glc(a1-4)Glc(a1-4)Glc(a1-4)Glc
# Outline: as §1
# Glc(a1-6)Glc(a1-6)Glc = target: Glc(a1-6)Glc(a1-6)Glc
# Outline: as §1
# [11] = target: Glc(a1-6)Glc(a1-6)Glc(a1-6)Glc
# Outline: as §1
# Glc(b1-4)Glc = target: Glc(b1-4)Glc
# Outline: as §1
binder,measurement,setting,value
PX9961X-pdi-531-24-531 (Parabacteroides distasonis) (protein) DLTEEIHSSVIAENYYNNAGEVMAAMMRPWGHFCGTMQVAQSPWSCNELSSDCAAWPQKGRHGYDNGDWIRLHRHQWIPTDGQVVDAWKKLFEGIGYANNFLTDTENIDFEALQVPMSKAQAQAEMRVYRAYCYWYVMDMFGTAPICEKIGEINPSSKSRAELFAWIEKELNESIPSLSESKTETYGRVSKWGAYALLARLYLNAEIYTGQARWDDCIAACDELAKGGFALDKKWNDTFRADNDKRSTEIIWSIVYDEVYAKGMGWYQRWLHYAHQTGWDLQSGPWNGLVTQPTFYDSFADNDLRKIEGFLIGKQYPRKVDENGNYYYDTTAEPLKGSEEYNGQDLVFVNYIKSMTEGEENSGARSIKYEIQPGTTGDMNNDWVMFRYSEVIYNKAEALMRKNGGKATQEVVDMINSVRQRSFKAEDWEKAKYTTATLTMDEFLAEKGREFAFEGIRRTDLVRFNKFVTTSWWDKTASNEPKRNIFPIPQRQLDANANLSPNEANSLF,glycan array binding signal (z-score),Gal3S6S(b1-4)GlcNAc,0.736
same,glycan array binding signal (z-score),Gal3S6S(b1-4)GlcNAc6S,1.11
same,glycan array binding signal (z-score),Gal4S(b1-4)GlcNAc,-0.114
same,glycan array binding signal (z-score),Gal4S6S(b1-4)GlcNAc,-0.746
same,glycan array binding signal (z-score),Gal6P(b1-4)GlcNAc,-0.516
same,glycan array binding signal (z-score),Gal6S(b1-3)GlcNAc,0.59
same,glycan array binding signal (z-score),Gal6S(b1-3)GlcNAc6S,-0.672
same,glycan array binding signal (z-score),Gal6S(b1-4)Glc,0.376
same,glycan array binding signal (z-score),Gal6S(b1-4)Glc6S,0.03
same,glycan array binding signal (z-score),Gal6S(b1-4)GlcNAc,0.29
same,glycan array binding signal (z-score),Gal6S(b1-4)GlcNAc6S,-0.681
same,glycan array binding signal (z-score),GalNAc(a1-3)Gal,0.96
same,glycan array binding signal (z-score),GalNAc(a1-3)GalNAc,0.11
same,glycan array binding signal (z-score),[1],-0.276
same,glycan array binding signal (z-score),[2],0.213
same,glycan array binding signal (z-score),GalNAc(b1-3)Gal,0.101
same,glycan array binding signal (z-score),[3],-0.236
same,glycan array binding signal (z-score),[4],-0.234
same,glycan array binding signal (z-score),[5],2.61
same,glycan array binding signal (z-score),GalNAc(b1-3)GalNAc,-0.252
same,glycan array binding signal (z-score),GalNAc(b1-3)GlcNAc,-0.514
same,glycan array binding signal (z-score),GalNAc(b1-4)Gal(b1-4)Glc,-0.106
same,glycan array binding signal (z-score),GalNAc(b1-4)GlcNAc,0.402
same,glycan array binding signal (z-score),[6],0.102
same,glycan array binding signal (z-score),[7],-0.009
same,glycan array binding signal (z-score),[8],-0.57
same,glycan array binding signal (z-score),GalNAc(b1-4)GlcNAc6S,0.06
same,glycan array binding signal (z-score),GalNAc(b1-6)GalNAc,-0.615
same,glycan array binding signal (z-score),GalNAc3S(b1-4)GlcNAc,-0.462
same,glycan array binding signal (z-score),GalNAc3S(b1-4)GlcNAc3S,-0.224
same,glycan array binding signal (z-score),[9],-0.766
same,glycan array binding signal (z-score),GalNAc4S6S(b1-4)GlcNAc,-0.467
same,glycan array binding signal (z-score),GalNAc6S(b1-4)GlcNAc,1.68
same,glycan array binding signal (z-score),Glc(a1-4)Glc,0.021
same,glycan array binding signal (z-score),[10],-0.421
same,glycan array binding signal (z-score),Glc(a1-6)Glc(a1-6)Glc,-0.319
same,glycan array binding signal (z-score),[11],0.235
same,glycan array binding signal (z-score),Glc(b1-4)Glc,-0.369
